To fix the notation:
B1: LINE1-mini (parent)
chain: GGCAGAGCUCAACACAGCGUGGCAAAGUGGCUGUGGCUAGACUGCC

The source gives no read counts; variants with many changes may rest on few reads.

Variants of B1 are the subject of this series. Put plainly: self-cleavage, relative activity (ratio to wild type); higher = more cleavage; in vitro, sequencing; the parent is a self-cleaving ribozyme.
In the case of GGCAGAGCUCAACACACCGUGGCACAGUGGCUGUGACUAGACUGAC [G17C A25C G36A C45A], the self-cleavage stood at 0.03. For GGCAGAGCUCAACACAACGUCGCAAAGUUGCUGUGGCUAGACUGCC [G17A G21C G29U] the value was 0.09; for GGCAGAGCUCAACACAACGUUGCAAAGUGGCUGUGGCCAGACUGCC [G17A G21U U38C], 0.07; for GGCAGAGCUCAACACACAGUGGCAAAGUGGCGGUGGCUAGACUGCC [G17C C18A U32G], 0.03. For GGCAGAGCUCAACACAACGUCGCAAUGUGGCUGUGGCAAGACUGCC [G17A G21C A26U U38A] the value was 0.06; for GGCAGAGCUCAACACAACGAGGUAAAGUGGCUGUGGCUAGACUGCC [G17A U20A C23U], 0.06; for GGCAGAGCUCAACACACCGUGGCUAAGUGGCAGUUGCUAGACUGCC [G17C A24U U32A G35U], 0.15.

Consider GGCAGAGCUCAACACACCGUGGCGAAACGGCUGUGGCUAGACUGCC [G17C A24G G27A U28C], for which the self-cleavage came out at 0.59.

In the case of GGCAGAGCUCAACACAACGUGGCAAAGUCGCUGUGGCUAGACUGCA [G17A G29C C46A], the self-cleavage was found to be 0.03.

For GGCAGAGCUCAACACACAGUGGCAAAGUGGCUUUGGCUAGACUGCC [G17C C18A G33U], the self-cleavage was 0.01. With GGCAGAGCUCAACACAACGUGACCAAGUGGCGGUGGCAAGACUGCC [G17A G22A A24C U32G U38A], the self-cleavage came to 0.1. In the case of GGCAGAGCUCAACACAACGGGGUAAAGUGGCUGUGGCUAGACUGCC [G17A U20G C23U], the self-cleavage came out at 0.07.

As to GGCAGAGCUCAACACACCGUGGCACAGUGGCUCUGGCUAGACUGCC [G17C A25C G33C], the self-cleavage worked out at 0.02. On to GGCAGAGCUCAACACAACGUGGCAAAGGGGCUGAGGCUAGACUGCC [G17A U28G U34A], for which the self-cleavage was 0.05. For GGCAGAGCUCAACACACCGUGGCAUAUUGGCUGUCGCUAGACUGCC [G17C A25U G27U G35C] the value was 0.01. For GGCAGAGCUCAACACAACGUGACAAAGUGGCUGUGGCUUGACUGCC [G17A G22A A39U] the value was 0.11; for GGCAGAGCUCAACACAACGUUGCAAUGUGGCUGUGGCUACACUGGC [G17A G21U A26U G40C C45G], 0.07; for GGCAGAGCUCAACACAACGCGGCAAAGUGGCUGUGGUUAUACUGCC [G17A U20C C37U G40U], 0.09. For GGCAGAGCUCAACACAACUUGGCAAAGGGGCUGUGUCUAGACUGAC [G17A G19U U28G G36U C45A] the value was 0.02; for GGCAGAGCUCAACACAACGUGGCAAAGUGGCUGGGGCUGGACCGCC [G17A U34G A39G U43C], 0.

On to GGCAGAGCUCAACACAACGUGGCAAAGUGCCUGAGGCUAGACUGCC [G17A G30C U34A], for which the self-cleavage came to 0.1. For GGCAGAGCUCAACACAACGUGGCAAAGUGGCUGGGGUUAGACUGCC [G17A U34G C37U] the value was 0.07; for GGCAGAGCUCAACACACCGUGGCAAGGUGGCUGUGGCUAGUCUGCC [G17C A26G A41U], 0.02; for GGCAGAGCUCAACACAACAUGGCAAAGUGGCUGUGGCUAGAUUGCC [G17A G19A C42U], 0.13. Consider GGCAGAGCUCAACACAACGUGGCAAAGGGUCUGAGUCUAGACUGCC [G17A U28G G30U U34A G36U], for which the self-cleavage was determined as 0.06.

Take GGCAGAGCUCAACACAACGUGCCGAAUUGGCUGUGGCUAGACUGCC [G17A G22C A24G G27U]: the self-cleavage turned out to be 0.01. GGCAGAGCUCAACACAACAUGGCAAUGUGGCUGUGGAUAGACUGCU [G17A G19A A26U C37A C46U]: the self-cleavage turned out to be 0.02. In the case of GGCAGAGCUCAACACAACGUGGCAAAGUGGCUUUGGUUAGACUGCC [G17A G33U C37U] it was 0.04; in that of GGCAGAGCUCAACACACCGUGGCAACGUGGCAGUGGCUAGACUGAC [G17C A26C U32A C45A], 0.05. For GGCAGAGCUCAACACAACGUGGCAAAGUGACUGUGGCGAGACUGCC [G17A G30A U38G] the value was 0.02; for GGCAGAGCUCAACACAACGUGGCAAAGUGGCUGUGGCUAUUCUGCC [G17A G40U A41U], 0.06; for GGCAGAGCUCAACACAACGAGGUAAAGUGUCCGUGGCUAGACUGCC [G17A U20A C23U G30U U32C], 0.08.

As for GGCAGAGCUCAACACACCGUGGCACAGUGGCUGUGGCUACACUGCC [G17C A25C G40C], the self-cleavage is 0.05.

Take GGCAGAGCUCAACACACCGUGGCCAAGUGGCUGUGGUUAUACAACC [G17C A24C C37U G40U U43A G44A]: the self-cleavage is 0. Consider GGCAGAGCUCAACACAACGUGGCAAAGUGACUGUCGCUAGACAGGC [G17A G30A G35C U43A C45G], for which the self-cleavage is 0. For GGCAGAGCUCAACACACCGUGGCGAAGUGGCUCUGGCUAGACUGCC [G17C A24G G33C] the value was 0.06; for GGCAGAGCUCAACACAACGUGGCAAAGUGGCUGCGACUAGACUGCC [G17A U34C G36A], 0.07; for GGCAGAGCUCAACACAACGUGUCAAAGUGGCUGUGGCUAGACUGUC [G17A G22U C45U], 0.18. In the case of GGCAGAGCUCAACACACCGUGGCCAAGUGGCUGUGGCCAGACUGCC [G17C A24C U38C] it was 0.24; in that of GGCAGAGCUCAACACAACGUGGCAAAGUGGCAGUGGCUAGAUUGCC [G17A U32A C42U], 0.02; in that of GGCAGAGCUCAACACAACGAGACAAGGUGGCUUUGGCUAGACUGCC [G17A U20A G22A A26G G33U], 0.03. For GGCAGAGCUCAACACACAGUGGCAAAAUGGCUGUGGCUAGACUGUC [G17C C18A G27A C45U], the self-cleavage was 0.09. In the case of GGCAGAGCUCAACACAACGUGGCAAAGCGGCUGUGGCUAUACUGCC [G17A U28C G40U] it was 0.11. In the case of GGCAGAGCUCAACACAACGUGGCAAAGUCGCUCUGGCUAGACUGCA [G17A G29C G33C C46A] it was 0.02; in that of GGCAGAGCUCAACACACCGUGGCAGCGUGGCUGUGGCUAGACUGCC [G17C A25G A26C], 0.4; in that of GGCAGAGCUCAACACAACGUGACAAAGUGGCUGUGGCUCUACUGCU [G17A G22A A39C G40U C46U], 0.02.

In the case of GGCAGAGCUCAACACAACGUGGCAAAGUUUCUGUGGCUAGACUGCC [G17A G29U G30U], the self-cleavage was 0.23. Turning to GGCAGAGCUCAACACAACGUUGCAAAGUGUCUGUGGCUAGACUGCC [G17A G21U G30U], the self-cleavage turned out to be 0.12.

Take GGCAGAGCUCAACACAACAUGCCAAAGUGGCUGUGGCUAGACUGCC [G17A G19A G22C]: the self-cleavage stood at 0.25. On to GGCAGAGCUCAACACAACGUGGCAAAGUGGCGGUGGCCAGACUGCC [G17A U32G U38C], for which the self-cleavage amounted to 0.07. In the case of GGCAGAGCUCAACACAACGUGGCAAAGUGGCUGUGGCUAGACCACC [G17A U43C G44A] it was 0.02; in that of GGCAGAGCUCAACACAACGUGUCAAAUAGGCUGUGGAUAGACUGCC [G17A G22U G27U U28A C37A], 0.06.

Consider GGCAGAGCUCAACACAACGACGCAAAGUGGCUGUGGCUAGACAGCC [G17A U20A G21C U43A], for which the self-cleavage was 0. Take GGCAGAGCUCAACACACCGUGGCAGAGUUGCUGUGGCUAGACUGCC [G17C A25G G29U]: the self-cleavage was 0.04. With GGCAGAGCUCAACACAACGUGCCACACUGGCUCUGGCGCGACUGCC [G17A G22C A25C G27C G33C U38G A39C], the self-cleavage turned out to be 0.01. In the case of GGCAGAGCUCAACACAACGUGGCAAAGUGACUGUGGCUAGUCUGCC [G17A G30A A41U] it was 0.03.
